Measurements taken from publication PMC12136788.
The other results are listed elsewhere or left out.

T1: UNK ZnF1-3 (human, UniProt Q9C0B0 31-174)
T1 sequence: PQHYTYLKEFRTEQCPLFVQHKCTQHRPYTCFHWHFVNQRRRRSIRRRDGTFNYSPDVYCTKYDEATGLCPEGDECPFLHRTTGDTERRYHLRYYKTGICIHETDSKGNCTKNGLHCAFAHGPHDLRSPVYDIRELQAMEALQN

B1: chr15:90999404:90999405:+_ENSG00000140575_ENST00000268182|hu_mus|FALSE|FALSE (ssRNA)
RNA: GGGAGUUCUACAGUCCGACGAUCCUGCAGAGUCUUCUGAGCGUCCCCUUCAUCCAGGGCUUCAUUAAUCAAGCCGAUGGCCAAAAUCCGCUCAUGCUCCUCAUGGACCACCAGGUUCACAUGGUCCACACACGCCUGGAUGUCCAACAGAGGAUUGAGCAUCA
B2: chr6:41757443:41757444:+_ENSG00000214736_ENST00000398881|hu_mus|hu_hu_hu_mus_False|28_68 (ssRNA)
RNA: GGGAGUUCUACAGUCCGACGAUCGAACCGUGCAGAGGCAACAUCUCAGCCGACACUGGGGGAUGGGGGAACAAAAGGGGGGGGUUCAGGCAAGGAGAGGGAGUCAACCCAUCUGAACACUCAGGUAGGAUCUUGUGGUCACAGCAACAGAGGAUUGAGCAUCA
B3: chr2:52995849:52995850:-_ENSMUSG00000061136_ENSMUST00000076313|mus_mus|motif|central (ssRNA)
RNA: GGGAGUUCUACAGUCCGACGAUCAAGAGUCAGAAAUUUAGGACUGCCCCAUCACCUGUGCCUUCAUACUACGUCGGGCAACGGCAAUGUGUCUGAUGGUAUAAUCAAAACAAGACAAUAGAGUAGACUGGAUUUACAUGUUUUCAACAGAGGAUUGAGCAUCA
B4: 37245145_37245265_1605_CDS_ENSMUSG00000075376_ENSMUST00000100143|mouse|control|control (ssRNA)
RNA: GGGAGUUCUACAGUCCGACGAUCAUUAGUGCCAACCUUCCCGACUUUCUUCACAGUCUCCAAAGUCCUUACUGCACUGUCAGUGCCUCGUGGGAUUAGCUGAGAAACACUGCUUUCUGUAUUUGAAAUUCCAUUUGUACUUGCCAACAGAGGAUUGAGCAUCA
B5: chr4:76721835:76721836:+_ENSG00000138768_ENST00000264904|hu_mus|hu_hu_hu_mus_True|18_78 (ssRNA)
RNA: GGGAGUUCUACAGUCCGACGAUCGUUUGGCUGGGGUUUCUGAGACGCUCUGGAAUAAACUCAUGUUUUGCUAAUAAAUCCUAGUUUCUCUAUGAAAUUCUCUUUGCCAAUCCUCUUUCAAUCAGUUUGCUUUAGUUUCUCUUUCAACAGAGGAUUGAGCAUCA
B6: chr3:35977374:35977375:+_ENSMUSG00000027710_ENSMUST00000011492|mus_mus|FALSE|FALSE (ssRNA)
RNA: GGGAGUUCUACAGUCCGACGAUCCACAGGCACUCUGGUAUUUUCAAAAUGGACCUCACAUGUGUUGGAGCCUCGAAUGCCUAAUUUAUCUUCAGGUUUCCCAUUAGUGAUUCCGCCGAAGUCUCUUUCUACUAUGAAUGCGGUCAACAGAGGAUUGAGCAUCA
B7: chr4:21667751:21667752:+_ENSMUSG00000028252_ENSMUST00000108240|mus_hu|FALSE|FALSE (ssRNA)
RNA: GGGAGUUCUACAGUCCGACGAUCUUCUAAUAUAUGAUUCAUCCUAUAAGGAAAUUCCUUUGGAAAGGCAUAUGAAAAUCUAGUUUUUAAUACAGAAGUAGCAGCAGCAAUCAAUCUUGUAUUUGAAACUACUCCAAAUUCCUCCAACAGAGGAUUGAGCAUCA
B8: chr2:152319639:152319640:+_ENSG00000080345_ENST00000243326|hu_hu|FALSE|FALSE (ssRNA)
RNA: GGGAGUUCUACAGUCCGACGAUCUUGCCUCCGACUUGUAGGGUAUGGGGGAGUUCCAGCAACAGUGGUAUUAGAAACUGAACUACUGCUGACAACGAAAGAAUUUUCUGUACUAGAUGCACAUUCAGUUGAUGUUUUCCUUGACAACAGAGGAUUGAGCAUCA
B9: chr7:149068622:149068623:-_ENSMUSG00000025139_ENSMUST00000001950|mus_hu|mus_mus_mus_hu_False|8_8 (ssRNA)
RNA: GGGAGUUCUACAGUCCGACGAUCGUGAGGCCUCUGAGUGUGGCUUGUGGUCUGUCCUGGGUUAGAGUUGUUAAUAUCACGGAACAUACCAUCUAGAACGUUCCAGUCCCGCCUGACACCUUCAUUCGCAAGAGGGCAGAAAUCCAACAGAGGAUUGAGCAUCA
B10: chr10:28872372:28872373:+_ENSG00000095787_ENST00000354911|hu_hu|FALSE|FALSE (ssRNA)
RNA: GGGAGUUCUACAGUCCGACGAUCUGCAUCUGAAGUUUUGCUUGGGUUAUUGCUUGGAUUAGAAGAAUGUGAAUUUGAACUAUGAAGAGCACUGUGGUUGUGUGAAUUUUCUUGUGGAGAGUAACUGGUCCCACCAUCCCUCUCCAACAGAGGAUUGAGCAUCA
B11: chr2:132618855:132618856:+_ENSMUSG00000027350_ENSMUST00000028826|mus_mus|FALSE|FALSE (ssRNA)
RNA: GGGAGUUCUACAGUCCGACGAUCUUCAGGUUCUUCUUCUGAAGCCCUGUAGUGAGCUAGAUGGUGACUCCUUUUUUCCCCUAAACGGACUGUGGCCACAUCUGCCUCCUUGGACUCCUUGGGAGAGGGUCUCCUUUCCUCAGACAACAGAGGAUUGAGCAUCA
B12: chr7:135837783:135837784:+_ENSMUSG00000042105_ENSMUST00000151237|mus_mus|FALSE|FALSE (ssRNA)
RNA: GGGAGUUCUACAGUCCGACGAUCUAGGUUGCCGAUGUUCACAUUGGAUUUGGUCUGCUUUACUUUUUGAUUUAGAGAUGAAAAUUUGCUCAUUAAAAAGCUUUUCCCCUGGGCAAGAGAGCCUUGGUUUUGAGAUCUGAUACCCAACAGAGGAUUGAGCAUCA
B13: chr10:33190432:33190433:-_ENSG00000150093_ENST00000302278|hu_mus|hu_hu_hu_mus_True|28_38 (ssRNA)
RNA: GGGAGUUCUACAGUCCGACGAUCUACAUUUUCCAAACCUGCAUGUGAAUAAAACCCUGGCCACAGAGCCCCAAAACUACCCUACUGUGACUAAGAUAAUUGCUACUUUGCAUUCAGGUUGCAAAAUCCGCCUGAGUAGGAUUCCAACAGAGGAUUGAGCAUCA
B14: chr2:202488911:202488912:-_ENSG00000155755_ENST00000286196|hu_mus|hu_hu_hu_mus_False|1_68 (ssRNA)
RNA: GGGAGUUCUACAGUCCGACGAUCAUUGAAACAUUUUUCAUAAUCUCCAGUAGCAUUUCAGCAUUAUUAAUCAAAAACUCAAUUGUAAAUACAUGUAUCUUAUAAAAAUACACUUAAAAACACGAGUGGGGAGCGCACAAAUACCAACAGAGGAUUGAGCAUCA

The binders below were run against T1, UNK ZnF1-3 (assay: nsRBNS (natural sequence RNA bind-n-seq); RBNS binding buffer (assumed for nsRBNS): 25 mM Tris pH 7.5, 150 mM KCl, 3 mM MgCl2, 0.01% Triton X-100, 500 ug/ml BSA, 20 U/ml SUPERase-In, 4 C; UNK is unkempt and MSI1 is Musashi-1; names of the RNAs are library labels; protein concentration not given here; high values mean tight binding).

Q: For B1, which binding signal is on record?
A: The binding signal was 0.695 enrichment R.

Q: B2 was tested. Which binding signal did it give?
A: The binding signal was 2.49 enrichment R.

Q: B3 was tested. Which binding signal did it give?
A: The binding signal was 0.584 enrichment R.

Q: For B4, which binding signal is on record?
A: The binding signal was 0.763 enrichment R.

Q: With B5 as the binder, how does the binding signal read?
A: The binding signal was 0.496 enrichment R.

Q: Which binding signal does the source give for B6 here?
A: Its binding signal is 0.764 enrichment R.

Q: B7 was tested. Which binding signal did it give?
A: The binding signal was 0.759 enrichment R.

Q: How did the binding signal turn out when B8 was run?
A: The binding signal was 0.915 enrichment R.

Q: For B9, which binding signal is on record?
A: The binding signal was 0.921 enrichment R.

Q: With B10 as the binder, how does the binding signal read?
A: The binding signal was 1.35 enrichment R.

Q: How did the binding signal turn out when B11 was run?
A: The binding signal was 0.487 enrichment R.

Q: How did the binding signal turn out when B12 was run?
A: The binding signal was 0.964 enrichment R.

Q: Which binding signal does the source give for B13 here?
A: Its binding signal is 0.889 enrichment R.

Q: B14 was tested. Which binding signal did it give?
A: Its binding signal is 1.67 enrichment R.
